Hit rate of the full screen: of about 48,000 compounds, about 120 (0.25%) were called active. Inconclusive results (about 4%) are left out. Calls come from the whole dose curve; as a rule, active = well fitted activation curve with a large enough effect; inconclusive = small, poorly fitted or top-dose-only effect, or another doubt; inactive = no such curve, though single readings can be large or run the other way. The list shows a part of the results.
Experiment: Primary qHTS for Identification of Small Molecule Activators of Huntingtin-Antisense Promoter Activity; note: nearly all actives have a fitted effect of over 55% in size
Details: HEK293 HTT-AS promoter firefly luciferase reporter, 24 h; series mostly up to 57.5 µM; activity change, positive = activation: at the top concentration
Outline: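 HEK293 luciferase promoter-reporter cells (2,500/well) plated 24 h, then compounds added at up to 57.5 uM final for 24 h at 37 °C. Firefly luminescence by Dual-Glo, normalized to vehicle (0%) and zero RLU (-100%).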

Activity change, positive = activation, inactive:
Clc1ccc2c(c1)NC(c1ccncc1)=NC(c1cccs1)=N2 3.36%
O=C1c2c(O)cc(O)cc2O[C@H](c2cc(O)c(O)c(O)c2)[C@H]1O -3.16%
COc1ccc2c(c1)CCc1c(C(=O)Nc3c(C)nn(Cc4ccccc4C)c3C)noc1-2 -28.4%
C[C@]12C=CC(=O)C=C1CC[C@@H]1[C@@H]2[C@@H](O)C[C@@]2(C)[C@@H]1CC[C@]2(O)C(=O)CO -11.4%
COc1cc(CNC(=O)c2ccc3nc(CCc4ccccc4)oc3c2)cc(OC)c1OC -11.4%
CCOc1ccccc1NC(=O)C(CC(C)C)NS(=O)(=O)c1ccc2c(c1)oc(=O)n2C (stereo not drawn) 6%
COC(=O)c1c(SC)nc2ccccc2c1OCc1ccc(Cl)cc1 -22%
O=C(COCc1cc(-c2ccc3c(c2)OCO3)on1)N1CCN(c2cccc(Cl)c2)CC1 2.99%
O=c1cc(-c2ccccc2)nc(SCc2nc(-c3ccc(Cl)cc3)no2)[nH]1 -2.26%
Cc1ccc(S(=O)(=O)N(Cc2nc(-c3cccc(C)c3)no2)C2CCCCC2)cc1 -24.3%
CNS(=O)(=O)c1cn(CC(=O)N2CCN(c3cccc(C)c3C)CC2)cc1S(=O)(=O)NC -12.1%
CCN1CCN(C(=O)c2cnn(-c3cccc(Cl)c3)c2C2CCN(C(=O)OC(C)(C)C)CC2)CC1 -18.8%
Cc1ccsc1C(=CCCN1CCC[C@@H](C(=O)O)C1)c1sccc1C -1.67%
CCCn1c(CNC(=O)c2ccc(F)cc2)nc2ccccc21 -7.91%
Cc1ccc2oc(-c3ccc(C)c(NC(=O)c4ccc(N5CCC(C)CC5)c([N+](=O)[O-])c4)c3)nc2c1 21.1%
O=C(CCCN1C(=O)C(c2ccccc2)Oc2cccnc21)Nc1ccccc1C(F)(F)F (stereo not drawn) -15.2%
O=c1c2cc3c(cc2n(Cc2ccc(F)cc2)c(=O)n1Cc1nc(-c2ccccc2)no1)OCO3 -14.3%
Cc1cccc(NC(=O)c2ccc3snnc3c2)c1C 0.105%
Cc1cccc(NC(=O)c2cc3c(=O)n4cccc(C)c4nc3s2)c1C -23%
CC(C)CN(CCCNC(=O)CN1N=C(c2ccc(Cl)cc2)CCC1=O)CC(C)C -2.65%
CCOC(=O)N1CCN(Cc2nc3cc(NC(=O)c4ccccc4[N+](=O)[O-])ccc3n2C(C)C)CC1 -46.3%
Cc1ccc(-n2c3nc(=O)[nH]c(=O)c-3cc3c(C)nn(-c4ccccc4)c32)cc1Cl -6.14%
O=C(NC1CCCCC1)c1ccc(Cn2c(SCc3ccc(F)cc3)nc3cccnc32)cc1 0.596%
Cc1ccc2c(c1)-c1onc(C(=O)N3CCN(c4ccc(Cl)cc4)CC3)c1CO2 -9.28%
Cc1cccc(C)c1NC(=O)NCCc1c[nH]c2ccccc12 -14.4%
CCCNC(=O)C1CCC(Cn2c(=O)c3sccc3n(Cc3ccccc3F)c2=O)CC1 (stereo not drawn) -7.6%
COCCCn1c(=N)c(C(=O)NCc2ccco2)cc2c(=O)n3ccccc3nc21 -10.6%
CNCCCN1c2ccccc2CCc2ccccc21 -14.7%
COc1ccccc1CNC(=O)CCn1nc(C)c2c(C)n(-c3ccccc3)nc2c1=O 0%
O=S(=O)(c1ccccc1)c1nnn2c1nc(NCc1ccc(F)cc1)c1sccc12 -4.48%
CCCCN(CC)C(=O)CSc1nc2n[nH]c(C)c2c(=N)n1-c1cccc(OC)c1 -43.6%
Cc1oc(-c2ccc(Cl)cc2)nc1CS(=O)CC(=O)N1CCN(c2cccc(C(F)(F)F)c2)CC1 (stereo not drawn) -45%
COc1cccc(N2CCN(c3ncnc4c3nc3n4CCCCC3)CC2)c1 -82%
CSC1=NC2(CCN(C(=O)NC3CCCCC3)CC2)N=C1c1ccc(C)cc1 -19.2%
COc1ccc(N2Cc3cccc(C(=O)Nc4cc(C)cc(C)c4)c3C2=O)cc1 3.22%
CCNC(=O)Nc1ccc(-c2nc3c(c(N4CCOC[C@H]4C)n2)CCN(C2COC2)C3)cc1 -24.1%
O=C(C1COc2ccccc2O1)N1CCN(c2nc3ccc(F)cc3s2)CC1 (stereo not drawn) 0.479%
Cc1noc(-c2ccc(-c3noc(-c4cccc(F)c4)n3)cc2)n1 10.9%
Cn1c(=O)c2c(nc(SCC(=O)Nc3ccccc3)n2Cc2ccccc2F)n(C)c1=O -1.98%
CCN(CC)S(=O)(=O)c1nnc(NC(=O)COc2ccccc2F)s1 -19.2%
Nc1c(C(=O)Nc2ccc(OC(F)(F)F)cc2)nnn1Cc1ccccc1 1.34%
Fc1ccc(CNc2ncnc3onc(-c4ccc(F)cc4)c23)cc1 -33%
CCc1c(CN2CCN(c3cccc(C)c3C)CC2)csc1C -10.2%
CCc1cccc(C)c1Nc1c(-c2ccccc2)nc2sccn12 -28.8%
O=C(C1COc2ccccc2O1)N(Cc1cccnc1)c1nc2ccc(Cl)cc2s1 (stereo not drawn) 18.9%
Cc1ccc(C#N)c(=O)n1CC(=O)Nc1ccccc1C(F)(F)F -13.6%
O=C(NCc1ccccc1Cl)C1CCCN(S(=O)(=O)c2cccc3nsnc23)C1 (stereo not drawn) -15.7%
COc1ccc(OC)c(CNC(=O)c2c3c(nc4ccccc24)C(=O)N(C2CCCCC2)C3)c1 5.83%
CCC(=O)N1CCc2cc(Br)cc(S(=O)(=O)N3CCN(c4ccc(C)cc4)C(C)C3)c21 (stereo not drawn) -2.85%
CCOC(=O)c1c(C)[nH]c(C)c1S(=O)(=O)N1CCC(C(=O)N2CCN(c3ccccc3)CC2)CC1 9.16%
CCOC(=O)c1c(C)[nH]c(C)c1S(=O)(=O)N1CCC(C(=O)N2CCN(c3cccc(Cl)c3)CC2)CC1 -22.9%
CCOC(=O)c1c(S(=O)(=O)N2CCC(C(=O)NCc3ccc(F)cc3)CC2)c(C)n(C)c1C -12.1%
C=Cc1ccc(Cn2c(C(=O)O)c(CNC3CCCC3)c3ccc(C)cc32)cc1 -20.5%
CN(C)S(=O)(=O)c1ccc2c(c1)N(CC(=O)Nc1ccc(OC(F)(F)F)cc1)C(=O)CS2 -19.3%
Cc1cccc(N(C)C(=O)CCS(=O)(=O)c2ccc3c(c2)oc(=O)n3C)c1 -4.03%
COc1ccc(OCC(=O)NC2CC(=O)N(c3cccc(OC)c3)C2)cc1 (stereo not drawn) -7.46%
CCCN(CCC)CC(O)Cn1cc(/C=C/C(=O)c2ccc(C)cc2)c2ccccc21 (stereo not drawn) -21%
CC(C)(C(=O)NCC(F)(F)C(F)(F)F)C(=O)N[C@@H]1C(=O)Nc2ccccc2-c2ccccc21 -37%
CCN(CC)CCOc1ccccc1C(=O)CCc1ccccc1 -14.4%
COc1ccc(NC(=O)CN2CCN(Cc3ccc(F)cc3)S2(=O)=O)cc1Cl -11.6%
COc1ccc(NC(=O)c2cc(S(=O)(=O)N3CCCCCC3)cn2C)c(OC)c1 -14.6%
CC(C(=O)NCc1ccc(Cl)cc1)n1ccc2cc(S(=O)(=O)N3CCCCCC3)ccc21 (stereo not drawn) -3.51%
C=CC(=O)Nc1cccc(Nc2nc(NC3CCC(N(C)C)CC3)nc3c2ncn3C(C)C)c1 (stereo not drawn) -42.4%
CCCCNc1nc2c(c(=O)n(C)c(=O)n2C)n1CC(O)COc1ccccc1C (stereo not drawn) 9.14% [at 11.5 µM, percent change from vehicle, -100% = no light]
O=C(Nc1ccc(F)c(Cl)c1)C1CCN(S(=O)(=O)c2ccc3[nH]c(=O)ccc3c2)CC1 -39.7%
CCOC(=O)c1c(NC(=O)c2ccc(Br)cc2)sc2c1CCCC2 -2.72%
O=C(O)c1cccc(Nc2ncnc3ccc(Br)cc23)c1 -13%
Cc1nn(C)c2c1c(C(F)(F)F)cc(=O)n2CC(=O)N1CCCCC1 3.12%
Cc1ccc(C(=O)Nc2nc3n(n2)C(c2ccc(F)cc2)C=C(c2ccccc2)N3)cc1 (stereo not drawn) -29.1%
COc1ccc(C(=O)Nc2nnc(S(=O)(=O)N3CCCc4ccccc43)s2)cc1 2.1%
Cc1ccc2nc(-c3cccc(NC(=O)c4ccc(Br)o4)c3)oc2c1 9.57%
CCOc1ccccc1-n1nnc(-c2nc(-c3ccccc3C)no2)c1C 12.3%
Cc1ccc(NC(=O)CSc2ccc3nnc(CCNS(=O)(=O)c4ccccc4)n3n2)cc1Cl -21.4%
Cc1ccc(Cl)cc1NC(=O)N1CCC(CN2CCCCCC2)CC1 0.935%
Cc1ccc2cc(CN(C)C(=O)c3cccc(Cl)c3)c(=O)[nH]c2c1 -9.81%
Cc1ccccc1NC(=O)c1cccc2c(=O)c3c([nH]c12)CCCC3 -14.7%
CCOCCn1ccc2c(OCC(=O)NCc3ccc(C)cc3)cccc2c1=O -21.9%
CN(C)CCNC(=O)c1ccc2c(c1)N(Cc1ccccc1)C(=O)c1ccccc1S2(=O)=O -8.16%
CCCSc1ncc(Cl)c(C(=O)NCc2ccc(OC)cc2)n1 -25.8%
COc1ccc(-c2cn3nc(N4CCCC(C(=O)Nc5cccc(Cl)c5C)C4)sc3n2)cc1 (stereo not drawn) -23.3%
O=C1c2[nH]nc(-c3ccccc3O)c2C(c2cccc(O)c2)N1Cc1ccncc1 (stereo not drawn) 9.47%
O=C(Cn1cc(C(=O)c2ccncc2)c(=O)c2cc(F)ccc21)Nc1ccc(Cl)cc1 -15.7%
COCCCNC(=O)N1[C@H](c2cccs2)[C@@H](C)C(=O)[C@@H](C)[C@@H]1c1cccs1 -18.9%
Cc1ccc2c(c1)N(S(=O)(=O)c1cc(-c3onc(C)c3C)ccc1C)CCO2 -70.1%
O=C(CN1C(=O)COc2ccc(S(=O)(=O)N3CCCC3)cc21)N1CCN(c2ccc(Cl)cc2)CC1 -29.3%
COc1cccc(-n2cc(C(=O)OCc3ccc(F)c(F)c3)c3ccccc3c2=O)c1 -20.5%
COc1ccccc1CNC(=O)CCn1c(=O)c2ccccc2n(CC(=O)Nc2ccc(Br)cc2F)c1=O -55.5%
CCCN(C(=O)c1cc2c(=O)oc3ccccc3c2s1)c1cccc(Cl)c1 -19.2%
CCOC(=O)N1CCN(C(=O)CN(c2cccc(Cl)c2)S(=O)(=O)c2ccccc2)CC1 -24.8%
CCCc1cc(=O)n2[nH]c(NC(=O)c3ccccc3Cl)nc2n1 9.03%
Cc1ccc(NC(=O)N2CCc3cc(S(=O)(=O)N4CCC(C)CC4)ccc32)cc1F -9%
CCOC(=O)c1ccc(N2C(=O)c3[nH]nc(-c4ccc(OC)cc4)c3C2c2ccccc2Cl)cc1 (stereo not drawn) -0.158%
COc1ccc(C2c3c(n(C)c4ccccc34)C(=O)N2CC(=O)Nc2cc(Cl)ccc2C)cc1 (stereo not drawn) -37.2%

Reference: PubChem BioAssay AID1508624 (National Center for Advancing Translational Sciences (NCATS), 2021)
